These results are taken from US20190127452A1 (Amgen, published 2019).

What all share (experiment): cell-based or functional assay
Experiment [1] has as its target GS molecular complementation fragment 1B (LZ -- T111 -- C-terminus) (mouse).
Experiment [2] concerns the target GS molecular complementation fragment 3B (LZ -- N126 -- C-terminus) (mouse).
For experiment [3], the target named is GS molecular complementation fragment 2B (LZ -- N105 -- C-terminus) (mouse).

B1: GS molecular complementation fragment 1A (N-terminus -- E110 -- LZ) (other)
chain: MATSASSHLNKGIKQMYMSLPQGEKVQAMYIWVDGTGEGLRCKTRTLDCEPKCVEELPEWNFDGSSTFQSEGSNSDMYLHPVAMFRDPFRKDPNKLVLCEVFKYNRKPAEGGGGSGGGGGSSDRMKQLEDKVEELLSKVYHLENEVARLKKLVGER
As for B1, in experiment [1], the “Days to >90% viability” value is approximately 30 days and the “Rescue of CHO-K1 GS KO” value is 2 of 4 transfections.

B2: GS molecular complementation fragment 3A (N-terminus -- S125 -- LZ) (other)
chain: MATSASSHLNKGIKQMYMSLPQGEKVQAMYIWVDGTGEGLRCKTRTLDCEPKCVEELPEWNFDGSSTFQSEGSNSDMYLHPVAMFRDPFRKDPNKLVLCEVFKYNRKPAETNLRHICKRIMDMVSGGGGSGGGGGSSDRMKQLEDKVEELLSKVYHLENEVARLKKLVGER
As to B2, in experiment [2], the “Days to >90% viability” value is approximately 24 days and the “Rescue of CHO-K1 GS KO” value is 4 of 4 transfections.

B3: GS molecular complementation fragment 2A (N-terminus -- Y104 -- LZ) (other)
chain: MATSASSHLNKGIKQMYMSLPQGEKVQAMYIWVDGTGEGLRCKTRTLDCEPKCVEELPEWNFDGSSTFQSEGSNSDMYLHPVAMFRDPFRKDPNKLVLCEVFKYGGGGSGGGGGSSDRMKQLEDKVEELLSKVYHLENEVARLKKLVGER
For B3, in experiment [3], the “Days to >90% viability” value came to 18 days and the “Rescue of CHO-K1 GS KO” value was 4 of 4 transfections.
